Reference: the supplement of paper PMC11417369
± gives the standard deviation of the averaged measurements. Some of the results follow.

System: PfAP2-G AP2 domain (GST-tagged)
Experiment: gcPBM binding intensity (ln(normalized median fluorescence intensity)); higher = stronger DNA binding
Procedure, shortened: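 Probes on an Agilent 4 × 180k array were primer-extended, double-stranded and 36 bp long, taken from intergenic genomic regions, with negative controls added. GST-tagged P. falciparum DNA-binding domains from E. coli, about 25 μg on average, were applied to the array for 1 h in 1× PBS containing 1% milk, 0.2 mg/ml BSA, 0.5% salmon testes DNA and 0.03% Triton X-100. Binding intensity, obtained after Alexa488 anti-GST antibody detection and a 488 nm scan, is the highest Masliner-normalised natural-log median intensity across replicate spots of either probe orientation.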

Compared with “ATTTTTCATATATATATATTAATATATATATATTAA [CACACA_negctrl_site1681]”, “AAAATTTCTTTTTTTTGTACATATATAATAATATAT [XGTACX_site7107]” is higher in “gcPBM binding intensity (ln)” value: 9.74 ± 0.14 for the first, 10.9 ± 0.62 for the second.

Going from “AAAATATAGTTATCAATATATAATATTTTTTTTTTA [CACACA_negctrl_site459]” to “TTATTAATATTGCATGCACACTATATAATAATTGAA [CACACA_site8258]”, the “gcPBM binding intensity (ln)” value rises from 9.42 ± 0.17 to 9.91 ± 0.11.

“TCTTTCTCTCTTCAAAGTACATATAATATATACTTC [XGTACX_site7982]” and “CAGTTAATGTTGGTACTTTATATAAAAATGATATGA [CACACA_negctrl_site1600]” are within error of each other in “gcPBM binding intensity (ln)” value: 11 ± 0.74 for the first, 10.9 ± 0.54 for the second.

“ATAACAACATTTGATAAACACACAGAAGTATAAATA [CACACA_site8739]” and “TATAAATAGGCATATACACACTTTTAATATTCATAA [CACACA_site6123]” are within error of each other in “gcPBM binding intensity (ln)” value: 10.1 ± 0.11 for the first, 9.96 ± 0.085 for the second.

“AAAACATACCTATATACACACATATAAATATAAATA [CACACA_site6956]” and “TATATATTAATATACACACACACATATATATATATA [CACACA_site1608]” are within error of each other in “gcPBM binding intensity (ln)” value: 10.1 ± 0.3 for the first, 10.2 ± 0.21 for the second.

Compared with “AATAAATTATTATGTACACACATAATAGTATATATA [CACACA_site1820]”, “TTTGATATAGAAAGAGCATGCAAGTTAGATAAAATA [TGCATGCA_site470]” is lower in “gcPBM binding intensity (ln)” value: 11.4 ± 0.85 for the first, 10.06 ± 0.057 for the second.

TTTTGTTATTTTGAAGTGCACTTTCCACTTAATATA and “CAATCATGGTTTTACACACACATGCATGTGAAAATT [CACACA_site4870]” are within error of each other in “gcPBM binding intensity (ln)” value: 10.4 ± 0.3 for the first, 10.2 ± 0.24 for the second.

“TTTCAAACTGTTCTCACACACGAAATTAGAAATGAA [CACACA_site4509]” and “AAAACAAAATAGGGAACACACACATGTCAATATATA [CACACA_site8834]” are within error of each other in “gcPBM binding intensity (ln)” value: 10.1 ± 0.25 for the first, 10.3 ± 0.18 for the second.

“TTTTTTTTTTTTTGGTTCACACTGAAAAGAGAGATA [GTGCAC_negctrl_site439]” and “TATATACATAGACACCCACACACAAAAAAAAAAAAA [CACACA_site8186]” are within error of each other in “gcPBM binding intensity (ln)” value: 10.2 ± 0.54 for the first, 10.3 ± 0.61 for the second.

“TCGAATTTGGAAAGAAGTACATGAAGCCAACATATG [XGTACX_site5222]” and “AATAAATAAAAATTATGTACATATATAAAAAATACA [XGTACX_site8581]” are within error of each other in “gcPBM binding intensity (ln)” value: 11.4 ± 0.79 for the first, 11.3 ± 0.74 for the second.

“TCATGTTTTACAAAAACACACAAATGAATATAAACA [CACACA_site4775]” and “AAAAAAAAAAGACACACACACACACTAATACATACA [CACACA_site6473]” are within error of each other in “gcPBM binding intensity (ln)” value: 10.1 ± 0.2 for the first, 10.15 ± 0.085 for the second.

“ACACATATGCATATATGTACATAATATATTAAACTT [XGTACX_site5975]” and “TAAAAAATAAATATATGTACGCAATAAATGTGTTAA [XGTACX_site4043]” are within error of each other in “gcPBM binding intensity (ln)” value: 11.2 ± 0.46 for the first, 11.6 ± 1.1 for the second.

First: AAATAAAATATCAATTAAAACAGAATTGAATTTTTA [CACACA_negctrl_site181]
Second: ATATGTTCTACAAAAAAGATGTCGATTTATTTTCTT [CACACA_negctrl_site1179]
The “gcPBM binding intensity (ln)” value of the first is lower: 9.5 ± 0.33 for the first, 9.98 ± 0.014 for the second.

“AAATATATATGTATATGTACTTATTTATTTAAAAGG [XGTACX_site4093]” and “TTTATTATATATAAAAGTACACATTGTAAGGAAACA [XGTACX_site8560]” are within error of each other in “gcPBM binding intensity (ln)” value: 11.4 ± 0.94 for the first, 11.5 ± 0.97 for the second.

“AAAAGTGATGAGACAAGTACTAACATATTATTATTA [XGTACX_site1533]” and “TTTTCTGTATAAACTTGTACATATATTTCCTTGTTT [XGTACX_site5745]” are within error of each other in “gcPBM binding intensity (ln)” value: 10.8 ± 0.42 for the first, 11 ± 0.66 for the second.

ATACCTATTTGATGAGTGCATTATCCAATATATGTA and “ATGTTTTACAAAAACACACAAATGAATATAAACATA [CACACA_site6667]” are within error of each other in “gcPBM binding intensity (ln)” value: 10.2 ± 0.11 for the first, 10.05 ± 0.092 for the second.

Compared with “AAAAAAAAAAAAAAATGTACAAATAGTAGTTACAGA [XGTACX_site2531]”, “AACATGTTAAAATAAACACACAGCTAAGGTTTTTTT [CACACA_site157]” is lower in “gcPBM binding intensity (ln)” value: 10.9 ± 0.49 for the first, 9.62 ± 0.25 for the second.

Compared with “TATTTGTAAATCGATACACACATATATATTAATATA [CACACA_site196]”, “AAATGTAGATATTATCGTACACATATATTTATATAT [XGTACX_site6326]” is higher in “gcPBM binding intensity (ln)” value: 9.94 ± 0.085 for the first, 11.1 ± 0.74 for the second.

“ATAATATATGTATATCCACACACATATATATATATA [CACACA_site8471]” and “ATTTAAGATTTAATCACACACATATATATTATATAC [CACACA_site2907]” are within error of each other in “gcPBM binding intensity (ln)” value: 10.2 ± 0.34 for the first, 9.855 ± 0.064 for the second.

Compared with “GCAAATGTGAAAACGTGTACACATTTTATTTAATTT [XGTACX_site8000]”, “TTGTTTATTTTTTATTACTATAAAGATGTTATATAT [CACACA_negctrl_site1506]” is lower in “gcPBM binding intensity (ln)” value: 11.7 ± 1 for the first, 10 ± 0.2 for the second.

“TATATAAATATATATGTACACACATATACATGTTGA [CACACA_site9022]” and ATAATATCTTTATGTGTGCACATATATATATATATA are within error of each other in “gcPBM binding intensity (ln)” value: 11.3 ± 0.92 for the first, 10.4 ± 0.42 for the second.

First: TTTTTTTTTTTTTTTGCACACTTGATTTGAGCTTAT [CACACA_site4042]
Second: AAAATAAAAATACACATTTTTTTTTTTTTTTTTTTT [TGCATGCA_negctrl_site515]
The “gcPBM binding intensity (ln)” value of the first is lower: 9.87 ± 0.41 for the first, 10.6 ± 0.18 for the second.

“TTTTTTTTTGTTTACACACCCAAATCACATACATAT [CACACA_site4052]” and “ATGATTTTTTCTGTATGTACATAAAAATAAAATTCT [XGTACX_site5698]” are within error of each other in “gcPBM binding intensity (ln)” value: 10.4 ± 0.37 for the first, 11.3 ± 0.8 for the second.

“CATTAGGTCTTTTGTACATGCAAGTGTGTGCGTAAA [TGCATGCA_site255]” and “TAAATAATTTATAAGTGTACTATTATTGCACGAATA [XGTACX_site7715]” are within error of each other in “gcPBM binding intensity (ln)” value: 11.1 ± 0.64 for the first, 11.3 ± 1.1 for the second.

Going from “AAAAAAAACAGACACACACACATAAATATATATAAA [CACACA_site148]” to “TATTAAGAAGAAAATTCACACATTTGTACCTCTCTT [CACACA_site4822]”, the “gcPBM binding intensity (ln)” value rises from 10.03 ± 0.085 to 11 ± 0.76.

Compared with “CAGCTCTTAAAAATTACACACATATACGCATATATA [CACACA_site3267]”, “TTTTCCTTTTTGGAATGTACACATATATATTAAATG [XGTACX_site4700]” is higher in “gcPBM binding intensity (ln)” value: 10 ± 0.15 for the first, 11.4 ± 0.93 for the second.

First: AAATATAATATATGCACACATACATACATATATATA [CACACA_site104]
Second: AAGAATAATAACAAATGTACTTATATAAAGTATTAT [XGTACX_site2336]
The “gcPBM binding intensity (ln)” value of the first is lower: 10.1 ± 0.17 for the first, 11.2 ± 0.86 for the second.

First: TAATTAAATATTTTCCTACAATTAATAAGAAAAGGA [XGTACX_negctrl_site565]
Second: TTACAAAAATGTGGTTGTACACAAACAAAAAAAATA [XGTACX_site8506]
The “gcPBM binding intensity (ln)” value of the first is lower: 9.86 ± 0.15 for the first, 11.5 ± 0.96 for the second.

With “GAAAATAGCTAAAATACACACAATTAAAAGTTATTA [CACACA_site7614]” the “gcPBM binding intensity (ln)” value was 9.72 ± 0.11.
